Laboratory results reported in PubChem BioAssay AID720647 (Broad Institute, 2013).
About 1,300 (0.34%) of roughly 380,000 compounds were called active. The shares of active, inactive and inconclusive entries below differ from those in the screen.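 The calls were made as follows: active = drop in luminescence signal, shown as inhibition above about 50% in the replicate tests (limit read from the data, passing the limit was not always enough); inconclusive = probably only some replicates passing the limit; inactive = the rest.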

These compounds were tested on Drosophila bursicon receptor LGR2 (rickets) (assay: inhibitors of bursicon-induced LGR2 CRE-luciferase signal, primary screen, cell-based, HEK293, CRE-luciferase reporter, bursicon stimulation (AID 720647;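 also: agonist challenge used bursicon conditioned medium at about half maximal strength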)). Details: bursicon-stimulated, 4 h, at 9.99 µM, hits give high values.

Row | SMILES | inhibition
1 | C[C@H](CO)N1C[C@H](C)[C@H](CN(C)C(=O)Nc2cccc3ccccc23)OCCCC[C@H](C)Oc2ccc(NC(=O)CCC(F)(F)F)cc2C1=O | inconclusive: 75.6%
2 | C=CCn1c(=NC(=O)c2cccc(N3C(=O)CCC3=O)c2)sc2cccc(OC)c21 | inconclusive: 9.77%
3 | Oc1ccc(-c2c(-c3ccsc3)sc3ccccc23)cc1 | inactive: 2.22%
4 | O=C(c1ccc2c(c1)OCCO2)C1CCN(S(=O)(=O)c2ccc(F)cc2)CC1 | inconclusive: 7.16%
5 | C=CCN=C1NN=C(c2ccc3c(c2)OCCO3)CS1 | inconclusive: 45.1%
6 | O=C(N/N=C/C(Br)=C/c1ccccc1)c1cc(-c2ccco2)[nH]n1 | inconclusive: 36.4%
7 | O=C1C(=O)c2cccnc2-c2ncccc21 | active: 100%
8 | C[C@@H]1CN([C@@H](C)CO)C(=O)c2cc(NC(=O)c3ccncc3)ccc2O[C@@H](C)CCCCO[C@H]1CN(C)C(=O)Nc1cccc2ccccc12 | inconclusive: 14.5%
9 | C[C@@H]1CN([C@@H](C)CO)C(=O)c2cc(-c3cccc(F)c3)cnc2O[C@H]1CN(C)Cc1cccnc1 | inactive: -5.96%
10 | C[C@H](CO)N1C[C@H](C)[C@H](CN(C)C(=O)Nc2ccc(F)cc2)Oc2c(NS(=O)(=O)c3ccc(F)cc3)cccc2C1=O | inactive: -8.71%
11 | Cc1ccc2nc3c(c(Nc4ccc5c(c4)OCCO5)c2c1)CCC3 | inconclusive: 56.7%
12 | CCC(=O)Oc1cccc(C(=O)Nc2cccc(NC(=O)c3ccco3)c2)c1 | inactive: 27.2%
13 | C[C@@H]1CCCCO[C@@H](CN(C)Cc2ccc3c(c2)OCO3)[C@@H](C)CN([C@@H](C)CO)C(=O)c2cc(NS(=O)(=O)c3ccc(Cl)cc3)ccc2O1 | inactive: 2.91%
14 | COc1ccc(S(=O)(=O)Nc2c(C)nc3nc[nH]n3c2=O)cc1 | inconclusive: 27.1%
15 | CCCNC(=O)C[C@H]1CC[C@H]2[C@@H](COc3ccc(NC(=O)Cc4cccs4)cc3C(=O)N2C)O1 | inactive: 2.48%
16 | COc1ccc(NC(=O)CCc2nc3ccccc3s2)c(OC)c1 | inactive: -37.4%
17 | O=C(CSc1nc2ccccc2[nH]1)Nc1nc(-c2cccc(Br)c2)cs1 | inconclusive: 95.9%
18 | Cc1csc(NC(=O)c2cn3ccccc3n2)n1 | active: 88.9%
19 | CCOC(=O)C(C)(C)N(Cc1ccccc1C)S(=O)(=O)c1ccc(Cl)c([N+](=O)[O-])c1 | inactive: 13.3%
20 | COCC#Cc1ccc([C@@H]2[C@@H](CO)N3C(=O)CN(C(=O)C4CCOCC4)C[C@H]23)cc1 | inactive: -13.6%
21 | CCCCCCCCN1C(=O)[C@H](CC(=O)N2CCN(C(=O)OCC)CC2)C[C@@]2(C(=O)OC)CCCCC=C12 | inconclusive: 55.7%
22 | C[C@@H]1CN([C@H](C)CO)C(=O)c2cc(NC(=O)Nc3ccc(F)cc3)ccc2O[C@H]1CN(C)Cc1ccc(-c2ccccc2)cc1 | inactive: 15.6%
23 | C=CCC[C@@H](Cc1ccc(F)cc1)C(=O)OC[C@H]1CCCN1C(=O)[C@@H](CC=C)CC(=O)N[C@H](CO)Cc1ccccc1 | inconclusive: 25.3%
24 | CNC(=S)N/N=C/c1ccc(-c2cccc(C(=O)O)c2)o1 | active: 65.1%
25 | O=c1[nH]c(NC2CCN(S(=O)(=O)c3ccccc3C(F)(F)F)CC2)nc2c1CCCC2 | inactive: 9.58%
26 | CC(=O)Nc1ccc(S(=O)(=O)c2ccnc3cc(Cl)ccc23)cc1 | inconclusive: 33.7%

Row | SMILES | inhibition
27 | CC1=NN(C(N)=S)C(=O)C1N=Nc1cccc(C)c1 (configuration not stated) | inactive: -26.9%
28 | N/C(=N\OC(=O)COc1ccc(Cl)cc1Cl)c1ccccn1 | inconclusive: 31.5%
29 | Cc1ccc2nc(-c3ccc(NC(=O)COC(=O)c4ccco4)cc3)sc2c1 | active: 66%
30 | CC(Nc1nc(-c2ccc(Cl)cc2)cs1)c1nc2cc(Cl)c(N3CCCCC3)cc2n1CCOCCO (configuration not stated) | inconclusive: 17.4%
31 | O=C(Cc1nc2ccccc2[nH]1)c1cccc([N+](=O)[O-])c1 | inconclusive: 63.6%
32 | COc1ccc(C(=O)Nc2nnc(-c3cccs3)s2)cc1 | inconclusive: 47.9%
33 | C[C@H](CO)N1C[C@H](C)[C@H](CN(C)C(=O)Nc2cccc3ccccc23)OCCCC[C@H](C)Oc2ccc(NC(=O)NC3CCCCC3)cc2C1=O | active: 60%
34 | C[C@H](CO)N1C[C@H](C)[C@H](CN(C)S(=O)(=O)c2ccc(C(F)(F)F)cc2)OCc2ccccc2-c2c(n(C)c3ccccc23)C1=O | active: 53.4%
35 | CO[C@H]1CN(C)C(=O)c2ccc(NC(=O)c3ccc(-c4ccccc4)cc3)cc2OC[C@@H](C)NC[C@@H]1C | inconclusive: 58%
36 | COc1ccc(S(=O)(=O)Nc2cccc3c2O[C@H](CN(C)C(=O)Nc2cccc4ccccc24)[C@@H](C)CN([C@H](C)CO)C3=O)cc1 | inactive: 5.56%
37 | COc1ccc(/C=N/Nc2cc(OC)ncn2)cc1 | inconclusive: 52.5%
38 | O=C(COc1ccc([N+](=O)[O-])cc1)NNC(=O)c1cccnc1 | inconclusive: 11.9%
39 | CCC1(C(=O)OC)CCc2c(cc(OC)c3ccccc23)C1=O (configuration not stated) | inactive: 1.71%
40 | COc1cc(C=CC(=O)c2cc(OC)c(OC)c(OC)c2)cc(OC)c1OC | active: 56.7%
41 | CC(C)CN(C(=O)COC(=O)C12CC3CC(CC(C3)C1)C2)c1c(N)n(Cc2ccccc2)c(=O)[nH]c1=O | inconclusive: 106%
42 | CCOC(=O)C1CCC(=O)C1 (configuration not stated) | inconclusive: 2.6%
43 | COc1cc2cc(C)c(Br)c(OC)c2cc1OC | inconclusive: -20.9%
44 | O=C1c2cccc(NCCCNCCO)c2C(=O)c2cccc(NCCCNCCO)c21 | active: 11.8%
45 | O=C(CSc1cccc2cccnc12)N/N=C/c1cccnc1 | inconclusive: 47.2%
46 | C[C@H](CO)N1C[C@H](C)[C@@H](CN(C)Cc2ccc(-c3ccccc3)cc2)Oc2ccc(NS(=O)(=O)c3ccccc3)cc2CC1=O | inactive: 9.55%
47 | CCOc1ccc(/C=C/C(=O)OCC(=O)Nc2cccc(S(=O)(=O)N3CCCC3)c2)cc1 | inactive: -36.6%
48 | COc1ccc(NC(=O)NNC(=O)COc2ccc3cc(Br)ccc3c2)c(OC)c1 | inactive: 12.6%
49 | COc1cccc(-c2ccc3c(c2)[C@H]2[C@H](CCN2C(=O)c2ccccc2F)[C@H](CO)N3C)c1 | inconclusive: 48.3%
50 | O=C(Nc1cccc(O)c1)c1cc(-c2ccc3c(c2)OCO3)on1 | inconclusive: 9.51%
51 | C(=N\Nc1nncc2ccccc12)/c1ccccn1 | inconclusive: 64.2%
52 | O=C(Nc1ccccc1)C(=O)Nc1ccccn1 | active: 65.2%

Row | SMILES | inhibition
53 | CCc1ccc2ncc(S(=O)(=O)c3ccc(C)c(C)c3)c(N3CCCC3)c2c1 | inconclusive: 12.8%
54 | CCNC(=S)N(Cc1ccco1)Cc1cc2cc(OCC)ccc2[nH]c1=O | inactive: 11%
55 | Cc1ccc(OCC(=O)NNC(=O)Cn2nnc(-c3ccccc3)n2)cc1 | inconclusive: 13.6%
56 | COc1ccc(CCNCC(O)Cn2c3ccccc3c3ccccc32)cc1OC (configuration not stated) | inconclusive: 41.1%
57 | CCN(CC)Cc1cc(Nc2c3ccccc3nc3c4ccccc4n(C)c23)cc(CN(CC)CC)c1O | inactive: 14.1%
58 | N#C[C@@H]1[C@H](c2ccc(C#Cc3ccccc3F)cc2)[C@H](CO)N1C(=O)C1CCCCC1 | active: 74.8%
59 | Cc1ccc(-c2nc(-c3ccccc3)no2)c(Cl)c1 | active: 66.7%
60 | O=C(Nc1ccc(N2CCOCC2)c(S(=O)(=O)Nc2ccccc2Cl)c1)c1ccc(F)cc1 | inconclusive: 8.12%
61 | C[C@H](CO)N1C[C@H](C)[C@@H](CN(C)CC2CCOCC2)Oc2ncc(Br)cc2C1=O | inconclusive: -7.86%
62 | Cc1cccc(-c2ccc([C@H]3[C@@H](CO)N4CCCCN(C(=O)c5ccc6c(c5)OCO6)C[C@@H]34)cc2)c1 | inconclusive: 43.5%
63 | C=C(C(=O)c1ccccc1)C(CC(=O)c1ccccc1)c1ccccc1 (configuration not stated) | inconclusive: 37.6%
64 | CCCCc1c(-c2ccc(Br)cc2)ncn1CCc1ccccc1OC | inconclusive: 53.4%
65 | O=C(CN1CCOc2ccccc21)NCc1ccc(F)cc1 | inconclusive: 51%
66 | COc1ccc(-c2csc(NC(=O)c3ccc(OCC(=O)N4CCOCC4)c(OC)c3)n2)cc1 | active: 91.5%
67 | COc1ccc(C(=O)Nc2nnc(SCC(=O)NC3CC3)s2)cc1 | inconclusive: 53.8%
68 | Cc1[nH][nH]c(=O)c1C(c1ccc2c(c1)OCO2)c1c(C)[nH][nH]c1=O | inconclusive: 51.2%
69 | C[C@H]1CN([C@@H](C)CO)C(=O)c2cccc(NC(=O)c3ccncc3)c2O[C@@H]1CN(C)CC1CCCCC1 | inactive: -35.4%
70 | COc1ccc2c3c(n(C)c2c1)[C@@H](CO)N(Cc1ccc(Cl)cc1)CC31CN(CC2CC2)C1 | inactive: 2.91%
71 | COc1ccc2c3c(n(C)c2c1)[C@@H](CO)N(C(=O)c1cccc(F)c1)CC31CN(CC2CC2)C1 | inactive: -1.18%
72 | Cc1ccc2nc(-c3ccc(O)c(O)c3)cn2c1 | inconclusive: 45%
73 | C[C@@H]1CN([C@H](C)CO)C(=O)Cc2cc(NC(=O)CCC(F)(F)F)ccc2O[C@@H]1CN(C)CC1CCCCC1 | inconclusive: 3.76%
74 | CCOc1ccc(S(=O)(=O)NCCC(=O)NC2CCC(C)CC2)cc1 (configuration not stated) | inconclusive: 11.1%
75 | Cc1ccc(NC(=O)c2ncn(CC(=O)NCc3ccc4[nH]ccc4c3)n2)cc1C | inconclusive: 56.9%
76 | COc1ccc(/C=C2\Sc3ccc(C(=O)NC4CC4)cc3N(C)C2=O)cc1OC | inactive: -7.2%
77 | S=C(NCc1ccccn1)Nc1cccc(Cl)c1 | inactive: -38.7%
